# According to the supplement of paper PMC11417369:
# ± gives the standard deviation of the averaged measurements. Some of the results follow.
# Tested on: PfAP2-G AP2 domain (GST-tagged)
# Assay: gcPBM binding intensity (ln(normalized median fluorescence intensity)); higher = stronger DNA binding
# Outline: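 DNA-binding domains from P. falciparum, fused to GST and produced in E. coli, were put on an Agilent 4 × 180k double-stranded probe array for 1 h in 1× PBS holding 1% milk, 0.2 mg/ml BSA, 0.5% salmon testes DNA and 0.03% Triton X-100. Probes were primer-extended, 36 bp long and drawn from intergenic genomic regions, with negative controls included. After Alexa488 anti-GST antibody detection and a 488 nm scan, binding intensity was set as the highest Masliner-normalised natural-log median intensity across replicate spots of either probe orientation.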
row,Sequence,gcPBM binding intensity (ln)
1,TATTAATATTTTTGTTGTACTTAAAAATGATGGTAG [XGTACX_site3501],11.4 ± 0.77
2,GGAATATTAAAAAAATGTACAAAAAATAATATCCAT [XGTACX_site2596],10.9 ± 0.4
3,TTTATTAATAATTATACACACATATAAAATGAATAA [CACACA_site1359],9.97 ± 0.12
4,AAAATATCTTGTTACTGTACAAATATAAATAAATAC [XGTACX_site3684],10.9 ± 0.65
5,TATAATGTTAAATAATGTACATATATTTTTTTTTTT [XGTACX_site4722],11.1 ± 0.74
6,TATATATATTAAAAAGTGCATTATTCATATTATATA [GTGCAC_site9400],9.85 ± 0.23
7,TTACAATTTAATATATGTACATATTTGTGATTTATC [XGTACX_site2911],11.2 ± 0.64
8,AATGGGTAAACATACACACACACATATATATATATA [CACACA_site1991],10.1 ± 0.22
9,ATATATACGTATGAATGTATATTTGTTTGAATTTTT [CACACA_negctrl_site524],9.965 ± 0.092
10,AATAATAACATACAGACACACACGTAAAAGCACGTG [CACACA_site253],10.29 ± 0.064
11,TTTATATATTAATATGCACACACAAGAAGTAATTAT [CACACA_site9045],10.4 ± 0.33
12,TATTGCACAAAATAATTTTATTATACTTTATGTTAG [TGCATGCA_negctrl_site574],9.7 ± 0.22
13,ATTTATAAAATTAATAGTACATATATTTATATATAT [XGTACX_site4173],11.1 ± 0.85
14,TTTTTATGTAGAATTTTTTTATTTTTTCAAAATGGA [CACACA_negctrl_site166],9.695 ± 0.021
15,ATTGTAATCATATGAAGTACTAATATATATTTTAAT [XGTACX_site8350],11 ± 0.7
16,ATTTGGCATAGACACACACACACACGCACGCACATA [CACACA_site6424],10.5 ± 0.38
17,TATGTTCATCATAGCACACATATATAAATTACAACA [CACACA_site3533],10.1 ± 0.16
18,CAAAAATAAACTATAGTACACACTTATTATTATGAA [CACACA_site2702],11.3 ± 0.84
19,AATGAAGAAAAAAAAAGTACATTATTTTTAAAACTT [XGTACX_site563],11.5 ± 0.91
20,AATTTTAAAAATATAACACACATATATAAAATATAT [CACACA_site3610],9.92 ± 0.31
21,ATTATAAATATGTATATACACACTTTTAATATTCAT [CACACA_site9367],10.04 ± 0.092
22,AAGCAAACATATTAATGTACACACACCCACACACAA [XGTACX_site5806],11.4 ± 0.76

row,Sequence,gcPBM binding intensity (ln)
1,TAAGATAAATGATAAAGTACTTTTTTTTTTTAAATA [XGTACX_site2326],11.3 ± 0.76
2,TTTTAAATAAAATATTGTACATTAAAATTGTAATAT [XGTACX_site2128],11 ± 0.67
3,AACAACTATTAATTTACACACATGTATTTATTTTAC [CACACA_site5683],10.1
4,TCTTATATATTTATTTGTACATATATATATATATAT [XGTACX_site7214],10.9 ± 0.55
5,AATATATGCTTTCGTTATATTAAATTCAATTTAATG [GTGCAC_negctrl_site76],9.94 ± 0.11
6,AATTGTCAGAGAATATGTACTTAAGTATTTATTGTT [XGTACX_site1947],11.2 ± 0.69
7,ATAAAAAAATAAAACACACACATATATATTATATAT [CACACA_site2810],9.91 ± 0.014
8,TAAATAAAAAAACACACACACATATATATATATATA [CACACA_site2269],9.99 ± 0.36
9,AATGCATTGATTGCATTCAAAAAAAAAAAAAAAAAA [XGTACX_negctrl_site597],9.55 ± 0.36
10,AATAAGATATCTACAACACACATTTAATTTTTTTTT [CACACA_site1641],9.54 ± 0.42
11,AATCATAAAGAACATATAATATATATATATATATAT [CACACA_negctrl_site316],9.99 ± 0.76
12,TTTGTCATAAGCAATGCATGTAAGTTTCTGACATTA [TGCATGCA_site1007],9.64 ± 0.014
13,TGGGATAGATCATTTACACACACAAAAAAAAAAAAA [CACACA_site2140],9.93 ± 0.4
14,TGTATTACGAAAAAATGTACAGAAAAAGAAACAAAA [XGTACX_site2777],11.2 ± 0.76
15,AAAAACAACACAGATAAATTAACACACACACACATA [XGTACX_negctrl_site588],10.4 ± 0.47
16,AAATATAGTATTAAAACACACATTTATATAAAAAGG [CACACA_site1482],10.02 ± 0.028
17,TGAACTCATAGGAAAACACACATATGTGTAATATAT [CACACA_site4267],10.06 ± 0.092
18,AACAAAAAAACAAACACACACACACGCATATTTATA [CACACA_site7680],10.03 ± 0.049
19,CACGCATACAGACACACACACACACGGATATAAATA [CACACA_site6445],10.3 ± 0.37
20,TATATACTCAGACATACACACAAATAAAAAAACACC [CACACA_site5820],10.7 ± 0.47
21,TTATGTGATTTTAATTGTACATAAATATTTGTTAAC [XGTACX_site3489],11.1 ± 0.69
22,GGTTCATTTATATGGAGTACAAAAAATATGTATATA [XGTACX_site8209],11.4 ± 0.88
